{
  "source": "PubChem BioAssay AID2676",
  "about": "(National Center for Advancing Translational Sciences (NCATS), 2010)",
  "note": "In all, about 370,000 compounds went through this assay and about 1,100 (0.3%) were called active. Inconclusive results, whose numbers are uncertain, are shown with a selection of clear calls. Calls come from the whole dose curve; as a rule, active = well fitted activation curve with a large enough effect; inconclusive = small, poorly fitted or top-dose-only effect; inactive = flat fitted curve, though single readings scatter. Potencies of inconclusive entries are doubtful fits and often do not repeat. Potency is the fitted concentration of half-maximal effect; tags give direction and shape of the fitted curve.",
  "data": [
    {"target": "Relaxin receptor 1 (Homo sapiens) (UniProt Q9HBX9)", "sequence (Q9HBX9 whole entry, looked up)": "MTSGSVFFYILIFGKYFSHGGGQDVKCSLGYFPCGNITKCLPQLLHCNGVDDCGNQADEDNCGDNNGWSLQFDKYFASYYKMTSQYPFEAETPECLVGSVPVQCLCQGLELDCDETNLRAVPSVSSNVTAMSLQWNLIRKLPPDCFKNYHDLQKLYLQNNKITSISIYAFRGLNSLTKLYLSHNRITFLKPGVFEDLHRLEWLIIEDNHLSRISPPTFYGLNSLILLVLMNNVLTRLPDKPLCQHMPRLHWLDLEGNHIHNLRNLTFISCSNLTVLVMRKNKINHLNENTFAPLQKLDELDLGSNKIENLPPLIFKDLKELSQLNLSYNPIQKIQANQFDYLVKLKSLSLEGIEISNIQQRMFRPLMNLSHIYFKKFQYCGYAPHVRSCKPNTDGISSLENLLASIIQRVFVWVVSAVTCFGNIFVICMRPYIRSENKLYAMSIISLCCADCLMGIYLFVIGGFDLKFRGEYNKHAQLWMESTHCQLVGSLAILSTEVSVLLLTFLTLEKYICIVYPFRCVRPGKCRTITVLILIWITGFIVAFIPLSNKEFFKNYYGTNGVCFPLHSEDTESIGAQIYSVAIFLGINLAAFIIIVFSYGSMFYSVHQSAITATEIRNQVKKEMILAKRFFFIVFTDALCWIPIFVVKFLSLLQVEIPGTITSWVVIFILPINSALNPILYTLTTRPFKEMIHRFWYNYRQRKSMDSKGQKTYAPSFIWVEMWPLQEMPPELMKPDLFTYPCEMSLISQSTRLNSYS", "experiment": "qHTS Assay for Agonists of the Relaxin Receptor RXFP1; note: nearly all actives have a fitted effect of over 60% in size", "conditions": "HEK293T-RXFP1 cAMP TR-FRET, 30 min; series mostly up to 57.5 µM", "in_short": "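HEK293 cells stably expressing RXFP1, treated 30 min at 37C with compounds plus PDE4 inhibitor Ro 20174; cAMP measured by HTRF TR-FRET. Normalized to buffer and 29 nM porcine relaxin; EC50 by Hill fit.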", "values": [
      {"smiles": "Cc1cccc(-c2nnc(SCC(=O)NC3CC3)n2C)c1", "Potency": "inconclusive: 28.2 µM [activator, partial curve]"},
      {"smiles": "COCCn1ccc2c(OCC(=O)Nc3c(C)cc(C)cc3C)cccc2c1=O", "Potency": "inconclusive: 39.8 µM [activator, single point]"},
      {"smiles": "CCOC(=O)c1c(NC(=O)COC(=O)CCOc2ccccc2C)sc(C(=O)NC)c1C", "Potency": "inconclusive: 39.8 µM [activator, single point]"},
      {"smiles": "COc1cccc(CNC(=O)CSc2ccc(-c3cccs3)nn2)c1", "Potency": "inconclusive: 28.2 µM [activator, partial curve]"},
      {"smiles": "Cn1c(=O)c2sccc2n2c(CCC(=O)N3CCN(c4ccc(F)cc4)CC3)nnc12", "Potency": "inconclusive: 12.6 µM [activator, partial curve]"},
      {"smiles": "CCCNc1nc2ccccc2n2c(C)nnc12", "Potency": "inconclusive: 20 µM [activator, partial curve]"},
      {"smiles": "COCCNC(=O)Cn1nc(-c2ccc(Cl)cc2)c2ccccc2c1=O", "Potency": "inconclusive: 39.8 µM [activator, single point]"},
      {"smiles": "COc1ccccc1Nc1nnc(SCC(=O)NC(=O)Nc2ccc3c(c2)OCCO3)s1", "Potency": "inactive"},
      {"smiles": "COc1ccc(N2CC(NC(=O)c3cccs3)CC2=O)cc1", "note": "(stereo not drawn)", "Potency": "inactive"},
      {"smiles": "COC(=O)c1ccc(NC(=O)C(=O)c2cn(CC(=O)N3CCOCC3)c3ccccc23)cc1", "Potency": "inconclusive: 25.1 µM [activator, single point]"},
      {"smiles": "Cc1ccc(C(=O)n2nc(C)c(S(=O)(=O)N3CCCCCC3)c2C)cc1C", "Potency": "inactive"},
      {"smiles": "Cc1cc(N2CCN(C)CC2)nc2ccc(NC(=O)c3ccc(C(C)(C)C)cc3)cc12", "Potency": "inactive"},
      {"smiles": "CN(Cc1ccccc1)c1nnc(NC(=O)Nc2cccc(Br)c2)s1", "Potency": "inactive"},
      {"smiles": "O=C(Nc1ccc(Cl)cc1)Nc1ccccc1Sc1ncc([N+](=O)[O-])s1", "Potency": "inconclusive: 8.91 µM [activator, full curve]"},
      {"smiles": "CCc1ccc(OCC(=O)NNC(=O)CSc2ncnc3sc(C)c(C)c23)cc1", "Potency": "inconclusive: 39.8 µM [activator, single point]"},
      {"smiles": "CCOc1ccc2[nH]c(=O)c(CN(CCc3ccccc3)C(=O)N3CCOCC3)cc2c1", "Potency": "inconclusive: 25.1 µM [activator, single point]"},
      {"smiles": "OCCNC(=S)Nc1ccc2nsnc2c1", "Potency": "inactive"},
      {"smiles": "Cn1c(=O)c2c(SCC(=O)NCc3ccco3)nc(-c3ccccc3F)nc2n(C)c1=O", "Potency": "inconclusive: 39.8 µM [activator, single point]"},
      {"smiles": "CCCOc1ccc(/C(O)=C2\\C(=O)C(=O)N(CCCOC)C23C(=O)N(C)c2ccccc23)cc1", "note": "(stereo not drawn)", "Potency": "inconclusive: 14.1 µM [activator, partial curve]"},
      {"smiles": "O=C(Nc1ccc(F)cc1)c1nc(S(=O)(=O)Cc2ccccc2)ncc1Cl", "Potency": "inactive"},
      {"smiles": "CC1CCN(c2nc3ccccc3nc2C(C#N)C(=O)OC2CCCCC2)CC1", "note": "(stereo not drawn)", "Potency": "inconclusive: 39.8 µM [activator, single point]"},
      {"smiles": "COc1ccc(C=O)cc1CN1C(=O)c2ccccc2C1=O", "Potency": "inconclusive: 25.1 µM [activator, partial curve]"},
      {"smiles": "Cc1cccc(-c2noc(-c3ccc(N4CCCC4)c([N+](=O)[O-])c3)n2)c1", "Potency": "inconclusive: 31.6 µM [activator, single point]"},
      {"smiles": "CCN(CC)C(=O)c1sc(NC(=O)C2c3ccccc3Oc3ccccc32)c(C(=O)OC(C)C)c1C", "Potency": "inconclusive: 39.8 µM [activator, single point]"},
      {"smiles": "COCCN(CCOC)S(=O)(=O)c1ccc(C(=O)Nc2nnc(COC)o2)cc1", "Potency": "inconclusive: 25.1 µM [activator, single point]"},
      {"smiles": "Cc1cc(C)c(Cn2c(=O)n(CCCCCC(=O)NCc3ccc4c(c3)OCO4)c(=O)c3sccc32)c(C)c1", "Potency": "inconclusive: 39.8 µM [activator, single point]"},
      {"smiles": "COc1ccc(OC)c(C(=O)NC(CC(N)=O)c2ccc(NCC3CC3)c([N+](=O)[O-])c2)c1", "note": "(stereo not drawn)", "Potency": "inactive"},
      {"smiles": "COc1cccc(C2/C(=C(\\O)c3ccc4c(c3)OCCO4)C(=O)C(=O)N2CC2CCCO2)c1", "note": "(stereo not drawn)", "Potency": "inconclusive: 17.8 µM [activator, partial curve]"},
      {"smiles": "O=C(Nc1ccc2oc(-c3cccnc3)nc2c1)c1ccc(-c2cccc(OC(F)(F)F)c2)o1", "Potency": "inactive"},
      {"smiles": "Cc1cc(N=Nc2ccccc2)c(NCC(O)C(O)C(O)CO)cc1C", "note": "(stereo not drawn)", "Potency": "inactive"},
      {"smiles": "CCN(Cc1ccccc1)C(=O)c1cc2c(=O)[nH]c3ccc(C)cc3c2s1", "Potency": "inconclusive: 39.8 µM [activator, single point]"},
      {"smiles": "O=C(NCCNC(=O)c1ccc(-c2ccc(Cl)c(Cl)c2)o1)c1cnccn1", "Potency": "inconclusive: 15.8 µM [activator, partial curve]"},
      {"smiles": "CCC(=O)N1CCc2cc(CNC(=O)c3ccc(OC)cc3)ccc21", "Potency": "inactive"},
      {"smiles": "Cc1ccc(F)cc1CNC(=O)c1cc(COc2ccc3ncccc3c2)on1", "Potency": "inactive"},
      {"smiles": "Cc1ccc2cc(CCNC(=O)C(=O)c3c[nH]c4ccccc34)c(=O)[nH]c2c1", "Potency": "inconclusive: 39.8 µM [activator, single point]"},
      {"smiles": "COc1ccc2c(c1)c1c(c(=O)n(-c3ccccc3C)c(=O)n1C)n2C", "Potency": "inconclusive: 39.8 µM [activator, single point]"},
      {"smiles": "O=C(Nc1ccc(Cl)c([N+](=O)[O-])c1)c1ccncc1", "Potency": "inactive"},
      {"smiles": "COc1ccc(-c2nc(Cn3c(SCc4cccc(C(F)(F)F)c4)nc4cccnc43)c(C)o2)cc1OC", "Potency": "inactive"},
      {"smiles": "Cc1cc(N2C(=O)C(O)=C(C(=O)c3cc4ccccc4o3)C2c2ccc(Br)cc2)no1", "note": "(stereo not drawn)", "Potency": "active: 22.4 µM"},
      {"smiles": "COc1cccc(OCc2nc3ncc(Br)cc3[nH]2)c1", "Potency": "inconclusive: 35.5 µM [activator, single point]"},
      {"smiles": "Oc1ccc(-c2sc(Nc3ccccc3)n[n+]2-c2ccc(F)cc2)cc1", "Potency": "inconclusive: 12.6 µM [activator, partial curve]"},
      {"smiles": "CCCS(=O)(=O)c1c(S(=O)(=O)CCC)c2cc(CC)ccn2c1C(=O)c1ccc(Cl)cc1", "Potency": "inconclusive: 35.5 µM [activator, single point]"},
      {"smiles": "O=S(=O)(c1ccc(Cl)cc1)c1nnn2c1nc(NCc1ccc3c(c1)OCO3)c1sccc12", "Potency": "inconclusive: 28.2 µM [activator, single point]"}
    ]}
  ]
}
